This is one part of the list. These are enrichments in a pooled selection; single values are uncertain.
What follows are sequences tested against T1, Drosophila AGO2 (FLAG-tagged, S2-R+ lysate) (UniProt Q9VUQ5) (assay: AGO2 loading enrichment factor (IP read count / input read count, not library-size normalised) (ratio); higher = more efficient loading into AGO2). Conditions: randomized region: 5' 5N of miR-317 loop.
T1 sequence: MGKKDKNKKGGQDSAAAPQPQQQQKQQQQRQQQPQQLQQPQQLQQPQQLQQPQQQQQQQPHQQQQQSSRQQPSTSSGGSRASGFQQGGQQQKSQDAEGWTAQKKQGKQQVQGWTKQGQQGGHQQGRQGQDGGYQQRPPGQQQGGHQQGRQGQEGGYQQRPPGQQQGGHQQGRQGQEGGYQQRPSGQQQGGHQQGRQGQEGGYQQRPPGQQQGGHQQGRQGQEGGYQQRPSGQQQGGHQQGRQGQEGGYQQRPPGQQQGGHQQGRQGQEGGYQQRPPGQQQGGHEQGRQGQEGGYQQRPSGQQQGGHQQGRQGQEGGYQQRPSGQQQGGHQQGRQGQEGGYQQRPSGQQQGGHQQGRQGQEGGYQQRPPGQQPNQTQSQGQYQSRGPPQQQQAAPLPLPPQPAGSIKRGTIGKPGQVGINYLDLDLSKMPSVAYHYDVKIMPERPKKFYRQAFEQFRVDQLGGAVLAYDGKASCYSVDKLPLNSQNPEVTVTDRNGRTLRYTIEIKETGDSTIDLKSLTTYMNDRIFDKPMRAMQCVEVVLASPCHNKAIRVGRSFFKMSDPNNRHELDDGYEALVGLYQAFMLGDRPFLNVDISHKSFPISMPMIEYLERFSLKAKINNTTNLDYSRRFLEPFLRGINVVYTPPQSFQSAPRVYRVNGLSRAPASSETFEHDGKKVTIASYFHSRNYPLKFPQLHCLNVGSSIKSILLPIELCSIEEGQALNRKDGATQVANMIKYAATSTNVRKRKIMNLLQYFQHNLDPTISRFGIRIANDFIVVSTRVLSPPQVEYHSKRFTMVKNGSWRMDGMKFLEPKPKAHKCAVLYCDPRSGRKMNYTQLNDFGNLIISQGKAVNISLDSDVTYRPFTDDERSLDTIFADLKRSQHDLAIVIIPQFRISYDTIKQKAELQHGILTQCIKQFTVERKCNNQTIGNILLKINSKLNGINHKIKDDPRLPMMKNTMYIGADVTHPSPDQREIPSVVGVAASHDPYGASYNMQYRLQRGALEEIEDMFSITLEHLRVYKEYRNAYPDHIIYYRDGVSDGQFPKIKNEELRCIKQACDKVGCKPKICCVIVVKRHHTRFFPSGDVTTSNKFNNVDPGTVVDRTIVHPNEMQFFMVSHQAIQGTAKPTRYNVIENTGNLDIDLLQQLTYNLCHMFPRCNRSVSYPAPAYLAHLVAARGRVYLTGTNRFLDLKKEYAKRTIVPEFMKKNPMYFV
Procedure: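 HISSA: 5'-phosphorylated, 32P-labelled 20-nt ssRNA oligos (miR-317 loop, first 5 nt randomized, constant 3' part TGAAATGCAAGCAAG as printed in methods; DNA letters for RNA) incubated 1 h at 25°C in lysate of S2-R+ cells expressing FLAG-AGO2. FLAG-AGO2 was immunopurified and bound oligos were sequenced after splinted ligation. Enrichment factor = IP read count / input read count (raw counts, not library-size normalised); single library, no replicates.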
With CCGCATGAAATGCAAGCAAG the “AGO2 loading enrichment factor” value was 0.269.
CGTCTTGAAATGCAAGCAAG was tested, and the “AGO2 loading enrichment factor” value was 0.167.
ATTCCTGAAATGCAAGCAAG was tested, and the “AGO2 loading enrichment factor” value was 0.378.
With AAATTTGAAATGCAAGCAAG the “AGO2 loading enrichment factor” value was 0.397.
In the case of AGCCGTGAAATGCAAGCAAG, the “AGO2 loading enrichment factor” value was 0.457.
For TCGCTTGAAATGCAAGCAAG, the “AGO2 loading enrichment factor” value was 0.128.
In the case of AGAGATGAAATGCAAGCAAG, the “AGO2 loading enrichment factor” value was 0.512.
For GTCGCTGAAATGCAAGCAAG, the “AGO2 loading enrichment factor” value was 0.278.
For GGGTGTGAAATGCAAGCAAG, the “AGO2 loading enrichment factor” value was 2.96.
With TAGTCTGAAATGCAAGCAAG the “AGO2 loading enrichment factor” value was 0.33.
In the case of GCCGGTGAAATGCAAGCAAG, the “AGO2 loading enrichment factor” value was 0.456.
In the case of GTATTTGAAATGCAAGCAAG, the “AGO2 loading enrichment factor” value was 0.343.
TAGATTGAAATGCAAGCAAG was tested, and the “AGO2 loading enrichment factor” value was 0.325.
For AGTTCTGAAATGCAAGCAAG, the “AGO2 loading enrichment factor” value was 0.453.
In the case of TGATATGAAATGCAAGCAAG, the “AGO2 loading enrichment factor” value was 0.446.
In the case of ATCGGTGAAATGCAAGCAAG, the “AGO2 loading enrichment factor” value was 0.522.
In the case of TCCTCTGAAATGCAAGCAAG, the “AGO2 loading enrichment factor” value was 0.572.
For CTTAGTGAAATGCAAGCAAG, the “AGO2 loading enrichment factor” value was 0.213.
TATCGTGAAATGCAAGCAAG was tested, and the “AGO2 loading enrichment factor” value was 0.518.
With GGTGGTGAAATGCAAGCAAG the “AGO2 loading enrichment factor” value was 8.41.
In the case of AGGCGTGAAATGCAAGCAAG, the “AGO2 loading enrichment factor” value was 0.92.
ACACATGAAATGCAAGCAAG was tested, and the “AGO2 loading enrichment factor” value was 0.485.
In the case of AGGTATGAAATGCAAGCAAG, the “AGO2 loading enrichment factor” value was 0.504.
In the case of GCCTATGAAATGCAAGCAAG, the “AGO2 loading enrichment factor” value was 0.209.
In the case of GGGTTTGAAATGCAAGCAAG, the “AGO2 loading enrichment factor” value was 0.577.
With GTTAGTGAAATGCAAGCAAG the “AGO2 loading enrichment factor” value was 0.255.
In the case of CCCTATGAAATGCAAGCAAG, the “AGO2 loading enrichment factor” value was 0.62.
For CGGGTTGAAATGCAAGCAAG, the “AGO2 loading enrichment factor” value was 1.44.
In the case of TTTAATGAAATGCAAGCAAG, the “AGO2 loading enrichment factor” value was 0.499.
In the case of CTACTTGAAATGCAAGCAAG, the “AGO2 loading enrichment factor” value was 0.467.
With CCCCTTGAAATGCAAGCAAG the “AGO2 loading enrichment factor” value was 0.353.
In the case of GTTAATGAAATGCAAGCAAG, the “AGO2 loading enrichment factor” value was 0.387.
With GTCTTTGAAATGCAAGCAAG the “AGO2 loading enrichment factor” value was 0.365.
In the case of CCCCATGAAATGCAAGCAAG, the “AGO2 loading enrichment factor” value was 0.298.
With CGACATGAAATGCAAGCAAG the “AGO2 loading enrichment factor” value was 0.368.
In the case of AGAGTTGAAATGCAAGCAAG, the “AGO2 loading enrichment factor” value was 0.391.
In the case of CGGCTTGAAATGCAAGCAAG, the “AGO2 loading enrichment factor” value was 0.481.
ACGAGTGAAATGCAAGCAAG was tested, and the “AGO2 loading enrichment factor” value was 0.444.
With TCCGCTGAAATGCAAGCAAG the “AGO2 loading enrichment factor” value was 0.175.
CGAGCTGAAATGCAAGCAAG was tested, and the “AGO2 loading enrichment factor” value was 0.103.
For GGTCTTGAAATGCAAGCAAG, the “AGO2 loading enrichment factor” value was 0.0925.
ACGGATGAAATGCAAGCAAG was tested, and the “AGO2 loading enrichment factor” value was 0.889.
GAATATGAAATGCAAGCAAG was tested, and the “AGO2 loading enrichment factor” value was 0.455.
For TCTCGTGAAATGCAAGCAAG, the “AGO2 loading enrichment factor” value was 0.281.
For GCGCTTGAAATGCAAGCAAG, the “AGO2 loading enrichment factor” value was 0.159.
In the case of ATGTGTGAAATGCAAGCAAG, the “AGO2 loading enrichment factor” value was 0.381.
With ACCTGTGAAATGCAAGCAAG the “AGO2 loading enrichment factor” value was 0.135.
With TGGCTTGAAATGCAAGCAAG the “AGO2 loading enrichment factor” value was 0.426.
ACCATTGAAATGCAAGCAAG was tested, and the “AGO2 loading enrichment factor” value was 0.491.
For ACGCTTGAAATGCAAGCAAG, the “AGO2 loading enrichment factor” value was 0.418.
AGCATTGAAATGCAAGCAAG was tested, and the “AGO2 loading enrichment factor” value was 0.133.
TACCGTGAAATGCAAGCAAG was tested, and the “AGO2 loading enrichment factor” value was 0.391.
With GCGACTGAAATGCAAGCAAG the “AGO2 loading enrichment factor” value was 0.348.
CGAAATGAAATGCAAGCAAG was tested, and the “AGO2 loading enrichment factor” value was 0.456.
For GTATCTGAAATGCAAGCAAG, the “AGO2 loading enrichment factor” value was 0.507.
For TACCCTGAAATGCAAGCAAG, the “AGO2 loading enrichment factor” value was 0.275.
TGACTTGAAATGCAAGCAAG was tested, and the “AGO2 loading enrichment factor” value was 0.11.
ACATTTGAAATGCAAGCAAG was tested, and the “AGO2 loading enrichment factor” value was 0.369.
With GTAGGTGAAATGCAAGCAAG the “AGO2 loading enrichment factor” value was 1.28.
For GAAGTTGAAATGCAAGCAAG, the “AGO2 loading enrichment factor” value was 0.415.
With GGTTCTGAAATGCAAGCAAG the “AGO2 loading enrichment factor” value was 0.603.
For TTAGCTGAAATGCAAGCAAG, the “AGO2 loading enrichment factor” value was 0.249.
In the case of CTGTTTGAAATGCAAGCAAG, the “AGO2 loading enrichment factor” value was 0.483.
For GTGGTTGAAATGCAAGCAAG, the “AGO2 loading enrichment factor” value was 1.08.
With CGAATTGAAATGCAAGCAAG the “AGO2 loading enrichment factor” value was 0.444.
In the case of AGGGGTGAAATGCAAGCAAG, the “AGO2 loading enrichment factor” value was 8.13.
In the case of CACTGTGAAATGCAAGCAAG, the “AGO2 loading enrichment factor” value was 0.222.
In the case of GGCTATGAAATGCAAGCAAG, the “AGO2 loading enrichment factor” value was 0.4.
For CTACCTGAAATGCAAGCAAG, the “AGO2 loading enrichment factor” value was 0.375.
TGTCATGAAATGCAAGCAAG was tested, and the “AGO2 loading enrichment factor” value was 0.392.
GGATCTGAAATGCAAGCAAG was tested, and the “AGO2 loading enrichment factor” value was 0.734.
In the case of CTTCTTGAAATGCAAGCAAG, the “AGO2 loading enrichment factor” value was 0.4.
With CACAATGAAATGCAAGCAAG the “AGO2 loading enrichment factor” value was 0.499.
CGGTCTGAAATGCAAGCAAG was tested, and the “AGO2 loading enrichment factor” value was 0.716.
GCCTCTGAAATGCAAGCAAG was tested, and the “AGO2 loading enrichment factor” value was 0.0935.
TTACGTGAAATGCAAGCAAG was tested, and the “AGO2 loading enrichment factor” value was 0.724.
For ATGACTGAAATGCAAGCAAG, the “AGO2 loading enrichment factor” value was 0.527.
For GTCGGTGAAATGCAAGCAAG, the “AGO2 loading enrichment factor” value was 2.19.
In the case of GTGGGTGAAATGCAAGCAAG, the “AGO2 loading enrichment factor” value was 5.72.
With AAGTGTGAAATGCAAGCAAG the “AGO2 loading enrichment factor” value was 0.339.
For CCGGGTGAAATGCAAGCAAG, the “AGO2 loading enrichment factor” value was 1.91.
ACTATTGAAATGCAAGCAAG was tested, and the “AGO2 loading enrichment factor” value was 0.359.
In the case of TGTTGTGAAATGCAAGCAAG, the “AGO2 loading enrichment factor” value was 0.849.
In the case of GTCTCTGAAATGCAAGCAAG, the “AGO2 loading enrichment factor” value was 0.677.
For TTCCGTGAAATGCAAGCAAG, the “AGO2 loading enrichment factor” value was 0.74.
With CAGAATGAAATGCAAGCAAG the “AGO2 loading enrichment factor” value was 0.36.
With GTAGATGAAATGCAAGCAAG the “AGO2 loading enrichment factor” value was 0.555.
With CGATATGAAATGCAAGCAAG the “AGO2 loading enrichment factor” value was 0.5.
CTCCGTGAAATGCAAGCAAG was tested, and the “AGO2 loading enrichment factor” value was 0.786.
In the case of GACCGTGAAATGCAAGCAAG, the “AGO2 loading enrichment factor” value was 0.54.
GAGGGTGAAATGCAAGCAAG was tested, and the “AGO2 loading enrichment factor” value was 4.74.
GCGGCTGAAATGCAAGCAAG was tested, and the “AGO2 loading enrichment factor” value was 0.0765.
For GGGCTTGAAATGCAAGCAAG, the “AGO2 loading enrichment factor” value was 0.582.
For CAACATGAAATGCAAGCAAG, the “AGO2 loading enrichment factor” value was 0.425.
With CCCATTGAAATGCAAGCAAG the “AGO2 loading enrichment factor” value was 0.333.
In the case of CCATCTGAAATGCAAGCAAG, the “AGO2 loading enrichment factor” value was 0.674.
For CCTATTGAAATGCAAGCAAG, the “AGO2 loading enrichment factor” value was 0.521.
For TCATGTGAAATGCAAGCAAG, the “AGO2 loading enrichment factor” value was 0.444.
With ACCGTTGAAATGCAAGCAAG the “AGO2 loading enrichment factor” value was 0.371.

Source: the supplement of paper PMC6451100
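Further: Per-sequence enrichment computed with FASTAptamer, counting only reads that carry the expected constant 3′ region.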
